Data as given in the RNAGym collection of RNA variant scans (doi:10.7554/elife.90254).
Read counts are not given, so values of variants with three or more changes are uncertain.

B1: OR4K15 (parent)
chain: GUUAACGGUCAUAGGCCAUGGAAACUAGGAGCACCAUUUCGCUGCCAGUGAAGAAAUGAACAAAGAAAAUCUGGGCCAGGCAGGCAUCAAAAGAAAUAGUCUUGCGCUCAACCAGAAAGUCUGUAAUCAUUUUAAGGGUA

Variants of: B1
Experiment: self-cleavage, relative activity (ratio to wild type); higher = more cleavage; in vitro, sequencing; the parent is a self-cleaving ribozyme

Question: Which self-cleavage does the source give for U2C U26C A67U A68G here?
Answer: 1.35

Question: With U2C A5G A59G A62G A95G U103G U108A G123A U133C as the variant, how does the self-cleavage read?
Answer: 0.03

Question: For U2G A36U U49C A60G, which self-cleavage is on record?
Answer: 0.47

Question: With U2C U19A A95G as the variant, how does the self-cleavage read?
Answer: 1

Question: With U2C A23G C34G A47U A59G as the variant, how does the self-cleavage read?
Answer: 0.57

Question: For U3A G93U U103C A118U, which self-cleavage is on record?
Answer: 0.68

Question: For U2C A63U A89G, which self-cleavage is on record?
Answer: 1.31

Question: For U2C A56G U102C, which self-cleavage is on record?
Answer: 1.94

Question: With U2C A24G U26C A95G as the variant, how does the self-cleavage read?
Answer: 0.44

Question: Which self-cleavage does the source give for U2C A18U A30G here?
Answer: 0.83

Question: For U2A G29A A47U A67G A78U U122A U139C, which self-cleavage is on record?
Answer: 0.8

Question: For U2G A51G U57C A90G G115C U139C, which self-cleavage is on record?
Answer: 0.02

Question: Which self-cleavage does the source give for U2C A90G A110G here?
Answer: 0.14

Question: For U2G A63G A90G, which self-cleavage is on record?
Answer: 1.26

Question: For U2C U49C A54C A68U A91G A96G, which self-cleavage is on record?
Answer: 0.94

Question: Which self-cleavage does the source give for U3A A11C A59G A63G A118G here?
Answer: 0.71

Question: For U2C A68G A118G U130C, which self-cleavage is on record?
Answer: 0.08

Question: Which self-cleavage does the source give for U2C U43C A78G here?
Answer: 0.3

Question: Which self-cleavage does the source give for U3A A94G U122C here?
Answer: 2

Question: For U2A U12C A24G U37C A89C A118G, which self-cleavage is on record?
Answer: 0.86

Question: With U3C A11G U26A as the variant, how does the self-cleavage read?
Answer: 0.7

Question: With U2C A54G A69G U132G as the variant, how does the self-cleavage read?
Answer: 1.69

Question: With U2C A5U A36G U57C as the variant, how does the self-cleavage read?
Answer: 1.81

Question: With U2C A13U A18G U72C U108G as the variant, how does the self-cleavage read?
Answer: 0.07

Question: With U2G U100C A116G as the variant, how does the self-cleavage read?
Answer: 1.94

Question: For U2C U100C A118G, which self-cleavage is on record?
Answer: 1.45

Question: Which self-cleavage does the source give for U2C U19C A23G here?
Answer: 1.04

Question: For U2C U9A A60G, which self-cleavage is on record?
Answer: 0.99

Question: Which self-cleavage does the source give for U2C A4G A23G A52C A54G A82G U120G A126G here?
Answer: 0.27

Question: With U2C A23G U43A A78C C101U as the variant, how does the self-cleavage read?
Answer: 0.01

Question: With U2C A30U U127C as the variant, how does the self-cleavage read?
Answer: 0.65

Question: With U2C U122A G123A A135C as the variant, how does the self-cleavage read?
Answer: 1.02

Question: Which self-cleavage does the source give for U2C A60G A66U U70C A110G here?
Answer: 0.06

Question: For U3A A18G A68G, which self-cleavage is on record?
Answer: 1.57

Question: For U2A U100C A118G U127C, which self-cleavage is on record?
Answer: 1.18

Question: Which self-cleavage does the source give for U3C A51G A82U A89U A116G here?
Answer: 0.12

Question: With U2C A59U A118G as the variant, how does the self-cleavage read?
Answer: 0.77

Question: With U2A U37C G99U U100C U131C as the variant, how does the self-cleavage read?
Answer: 0

Question: With U2C U12A A78U A116G as the variant, how does the self-cleavage read?
Answer: 0.2

Question: With U3C A18U A63U as the variant, how does the self-cleavage read?
Answer: 1.17

Question: With U3A A51G A78G A89U as the variant, how does the self-cleavage read?
Answer: 0.21

Question: With U2C A5G A23G A24C as the variant, how does the self-cleavage read?
Answer: 0.62

Question: Which self-cleavage does the source give for U2C A24G A30G G44A U49G A64G here?
Answer: 1.04

Question: With U3C A11G A36U A62G A90G as the variant, how does the self-cleavage read?
Answer: 0.18

Question: With U2C A5U A54G A86U A96G U132C as the variant, how does the self-cleavage read?
Answer: 1.24

Question: With U2C U19C U37A A89G U97C as the variant, how does the self-cleavage read?
Answer: 1.39

Question: Which self-cleavage does the source give for U3A A92G U122A here?
Answer: 0.86

Question: Which self-cleavage does the source give for U2A U39C A54G G74A C128U here?
Answer: 0.44

Question: For U2C U26C U57C A111U, which self-cleavage is on record?
Answer: 0.03

Question: For U2C A91G A94C U108C A111G, which self-cleavage is on record?
Answer: 0.03

Question: Which self-cleavage does the source give for U2C A11G A111G here?
Answer: 0.02

Question: For U2C A55U A56C A126G, which self-cleavage is on record?
Answer: 1.18

Question: Which self-cleavage does the source give for U3C A30C U39A U49C A111G A118G U132C here?
Answer: 0

Question: With U2C A52G A96G as the variant, how does the self-cleavage read?
Answer: 2.06

Question: With U2C A11G A54G as the variant, how does the self-cleavage read?
Answer: 0.88

Question: For U2C A33G A64G, which self-cleavage is on record?
Answer: 0.73

Question: Which self-cleavage does the source give for U2C U19A U130C here?
Answer: 1.28

Question: Which self-cleavage does the source give for U2C A23G A52G A66G A89G here?
Answer: 1.31

Question: For U2C G53U A67U, which self-cleavage is on record?
Answer: 1.85

Question: Which self-cleavage does the source give for U3C A60U A126G here?
Answer: 1.11

Question: For U2C U3C A11U A23U A56G U87G A91G, which self-cleavage is on record?
Answer: 0.04

Question: With U3C A5G U19C G84U A90G as the variant, how does the self-cleavage read?
Answer: 0.82

Question: Which self-cleavage does the source give for U2A U43C U49A here?
Answer: 0.72

Question: Which self-cleavage does the source give for U2C A55G A86G A91G here?
Answer: 0.14

Question: Which self-cleavage does the source give for U2C A54G A90G here?
Answer: 1.6

Question: With U2G A63G U97C A110G A111G as the variant, how does the self-cleavage read?
Answer: 0.06

Question: With U2C A78G A111U as the variant, how does the self-cleavage read?
Answer: 0.02

Question: For U2C A52G U102C A126G, which self-cleavage is on record?
Answer: 0.73

Question: With U2C A18U U43C A86G A92C U122C as the variant, how does the self-cleavage read?
Answer: 0.63

Question: For U3C A23G A47G, which self-cleavage is on record?
Answer: 0.71

Question: With U2C A78G A118G U130C as the variant, how does the self-cleavage read?
Answer: 0.09

Question: For U2C C6U A36U C42A A56G, which self-cleavage is on record?
Answer: 0.56

Question: With U2C A30G A82G as the variant, how does the self-cleavage read?
Answer: 0.45

Question: For U2C G99A G106U U130G, which self-cleavage is on record?
Answer: 0

Question: For U2C A82G A116G, which self-cleavage is on record?
Answer: 0.29

Question: With U2C A54U A82G A86G A110U as the variant, how does the self-cleavage read?
Answer: 0.07

Question: With U2C A23C A64G U100C as the variant, how does the self-cleavage read?
Answer: 1.83

Question: For U2C U70C A86U U108A, which self-cleavage is on record?
Answer: 0

Question: Which self-cleavage does the source give for U2C U131C U133C here?
Answer: 1.26

Question: Which self-cleavage does the source give for U2C U9C A52G A111G here?
Answer: 0.05

Question: For U3A A4G A5G A52G, which self-cleavage is on record?
Answer: 0.56

Question: For U3C A18G A59G U102A A110U, which self-cleavage is on record?
Answer: 0.9

Question: With U2C A24U U70C G75A A89U U103C as the variant, how does the self-cleavage read?
Answer: 0.03

Question: With U2A C81U A129U as the variant, how does the self-cleavage read?
Answer: 0.25
